Test system: sephadex bead stimulated LTE4 production in whole human blood
Conditions: 1.5 h, read-out: IC50, inhibition of Sephadex-stimulated LTE4 production

SMILES	IC50
COc1ccc(Cc2ccc(N3CC[C@H]3C(=O)O)nc2)c(F)c1-c1cccc(Cl)c1 [Example A-066, (S)-1-[5-(3′-chloro-2-fluoro-6-methoxy-biphenyl-3-ylmethyl)-pyridin-2-yl]-azetidine-2-carboxylic acid]	< 1000 nM
COc1ccc(Cc2ccc(NC(=O)NCC(=O)O)nc2)c(F)c1-c1cccc(Cl)c1 [Example A-028]	> 1000 nM
COc1ccc(Cc2ccc(NS(N)(=O)=O)cc2)c(F)c1-c1cccc(Cl)c1 [Example A-008]	< 1000 nM

The next lines start with the values.

IC50	SMILES
< 1000 nM	COc1ccc(Cc2ccc(N(CC(=O)O)C(C)=O)nc2)c(F)c1-c1cccc(Cl)c1 [Example A-037, {acetyl-[5-(3′-chloro-2-fluoro-6-methoxy-biphenyl-3-ylmethyl)-pyridin-2-yl]-amino}-acetic acid]
< 1000 nM	COc1ccc(Cc2ccc(NCC(=O)O)nc2)c(F)c1-c1cccc(Cl)c1 [Example A-035, [5-(3′-chloro-2-fluoro-6-methoxy-biphenyl-3-ylmethyl)-pyridin-2-ylamino]-acetic acid]
< 1000 nM	COc1ccc(Cc2ccc(NS(N)(=O)=O)cc2)c(F)c1-c1cccc(C(C)=O)c1 [Example A-016]

Reference: patent US20120213758A1, “BIARYL PDE4 INHIBITORS FOR TREATING PULMONARY AND CARDIOVASCULAR DISORDERS” (DeCODE Genetics enf, priority 2007, published 2012)
